The BET-seq Pho4 binding data (Le et al. 2018)
The list shows a part of the results. The energies were worked out here from pooled read counts, against the library average; single values are noisy.

target: T1, Pho4 (S. cerevisiae) (UniProt P07270); test: relative binding free energy (BET-seq); higher = weaker binding; conditions: reference: library average
T1 sequence: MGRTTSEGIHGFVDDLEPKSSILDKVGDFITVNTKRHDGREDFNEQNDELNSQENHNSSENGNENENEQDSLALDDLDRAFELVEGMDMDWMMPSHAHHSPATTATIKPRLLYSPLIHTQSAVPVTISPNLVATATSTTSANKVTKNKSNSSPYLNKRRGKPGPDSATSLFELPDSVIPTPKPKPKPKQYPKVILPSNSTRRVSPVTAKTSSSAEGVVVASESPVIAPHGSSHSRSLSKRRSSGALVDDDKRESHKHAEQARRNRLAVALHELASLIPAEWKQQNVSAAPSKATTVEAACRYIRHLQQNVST

Sequence	relative binding free energy
ATTAACACGTGAGCGT	0.14 kcal/mol
AAAGTCACGTGGTGGA	0.02 kcal/mol
GAATACACGTGTGTTG	0.04 kcal/mol
GTGTGCACGTGGTCTC	-0.02 kcal/mol
TGGTTCACGTGCTTTG	0.22 kcal/mol
AAGAGCACGTGAATGG	0.12 kcal/mol
AGTGACACGTGTGATA	0.13 kcal/mol
TTGCGCACGTGTTTAA	-0.01 kcal/mol
AGGATCACGTGTTTCG	0.17 kcal/mol
GTTCTCACGTGTTCGT	0.19 kcal/mol
ATAGACACGTGGATGG	-0.04 kcal/mol
ATCGTCACGTGGAGCG	0.17 kcal/mol
GGAGGCACGTGTATAG	0.01 kcal/mol
GGGTGCACGTGATGGC	0.24 kcal/mol
TGTCTCACGTGTTTTA	0.15 kcal/mol
AAGTACACGTGTTTCT	0.21 kcal/mol
TATGCCACGTGAGGTG	0.14 kcal/mol
AGGAACACGTGGTTTG	0.06 kcal/mol
GATATCACGTGGTTTT	0.22 kcal/mol
AAATTCACGTGGTCGT	0.18 kcal/mol
GAAGGCACGTGGCTGG	-0.07 kcal/mol
CATTTCACGTGTGCGG	0.39 kcal/mol
GGAGTCACGTGGGGTA	0.1 kcal/mol
TGGTACACGTGACGGT	0.23 kcal/mol
GTTGTCACGTGAGGGT	0.4 kcal/mol
ATTGACACGTGAAAGT	0.3 kcal/mol

Sequence	relative binding free energy
TTTTGCACGTGTTTCT	0 kcal/mol
GTGGCCACGTGGTTCT	-0.04 kcal/mol
GGTGGCACGTGGAGTT	0.08 kcal/mol
GGATTCACGTGGGTTC	0.24 kcal/mol
AGTCTCACGTGTGGTT	0.12 kcal/mol
GCATTCACGTGTTAGT	0.21 kcal/mol
TACTGCACGTGGGGAG	-0.23 kcal/mol
GATGTCACGTGTCTAG	0.23 kcal/mol
CCTGGCACGTGGCGGG	-0.27 kcal/mol
GCTGGCACGTGGCGTA	-0.2 kcal/mol
CAGGGCACGTGGATAA	0.06 kcal/mol
TGGTGCACGTGTGACT	0 kcal/mol
GAGGTCACGTGGAGCT	0.11 kcal/mol
ATGGTCACGTGGATCG	0.18 kcal/mol
TTTGGCACGTGCTTTT	0.02 kcal/mol
AAGTGCACGTGAAATG	0.14 kcal/mol
AAAGTCACGTGAGAGG	0.12 kcal/mol
AACGCCACGTGGGGGG	-0.16 kcal/mol
TTGATCACGTGTATCG	0.24 kcal/mol
GAAGTCACGTGCTTGG	0.07 kcal/mol
TTGATCACGTGTGCTG	0.26 kcal/mol
TTTAACACGTGCTTAG	-0.11 kcal/mol
GCGGGCACGTGGGAGC	-0.22 kcal/mol
TTCGCCACGTGGGAGG	-0.2 kcal/mol
GATTTCACGTGTAGAG	0.13 kcal/mol
ATTAGCACGTGGTCTA	-0.18 kcal/mol

Sequence	relative binding free energy
ATCGTCACGTGGGAAT	0.06 kcal/mol
CAGGGCACGTGGCGGC	-0.21 kcal/mol
TGGATCACGTGTCAGT	0.13 kcal/mol
GTTGGCACGTGTAATC	0.24 kcal/mol
GGTAACACGTGTCAGT	0.18 kcal/mol
GTGAGCACGTGTTGGT	0 kcal/mol
CGGGACACGTGCGGGC	0.06 kcal/mol
TTTACCACGTGTATTT	-0.04 kcal/mol
TTAAACACGTGCGTGG	-0.11 kcal/mol
TTCTACACGTGACGGT	0.34 kcal/mol
ATAGGCACGTGTGCTG	-0.14 kcal/mol
TTCAGCACGTGATTGG	0.04 kcal/mol
CTGGGCACGTGGATAG	-0.11 kcal/mol
TAGCGCACGTGACGGG	0.05 kcal/mol
AATAGCACGTGTGTGG	-0.1 kcal/mol
GTGGTCACGTGGAGCC	0.26 kcal/mol
AAATGCACGTGGTTGA	-0.12 kcal/mol
TTGATCACGTGGGGGT	0.01 kcal/mol
AGGATCACGTGTGTAG	0.2 kcal/mol
GTTCTCACGTGGAAGG	0.38 kcal/mol
GGGCTCACGTGTCATG	0.26 kcal/mol
GAGGTCACGTGGCTTA	0.16 kcal/mol
TACGACACGTGGGTGG	-0.22 kcal/mol
GGACGCACGTGCGGTG	-0.18 kcal/mol
TGTATCACGTGCATTT	0.19 kcal/mol
TGCGTCACGTGGTTTA	-0.08 kcal/mol

Sequence	relative binding free energy
CGGTTCACGTGGAAGT	0.28 kcal/mol
TCTGACACGTGCGGGG	-0.13 kcal/mol
AGGTGCACGTGGAAAT	0.09 kcal/mol
ATGCACACGTGGGTGT	-0.06 kcal/mol
GGGCTCACGTGAAGTT	0.53 kcal/mol
GTATACACGTGGGTAG	-0.06 kcal/mol
CGGTGCACGTGGTTAG	-0.11 kcal/mol
TTGGGCACGTGGATTT	0.09 kcal/mol
AGGTACACGTGTCTGT	-0.1 kcal/mol
TGACGCACGTGTTAGG	-0.23 kcal/mol
AATTTCACGTGGAGGG	0.2 kcal/mol
TCAGGCACGTGTGTTA	-0.1 kcal/mol
CGGGACACGTGTTGGC	0 kcal/mol
AGGGGCACGTGTTCTA	0 kcal/mol
CGGAGCACGTGGTTAT	-0.12 kcal/mol
CATTTCACGTGGTGCG	0.28 kcal/mol
CGTTGCACGTGTCGAG	0.05 kcal/mol
CTGTGCACGTGATTAG	0.09 kcal/mol
AGCTTCACGTGCTTGG	0.38 kcal/mol
AACTGCACGTGTTAGG	0.06 kcal/mol
TGTAACACGTGGGTTC	-0.09 kcal/mol
AGAAGCACGTGGCTGT	-0.12 kcal/mol
GGATACACGTGTGGTA	0.13 kcal/mol
GAGTGCACGTGAGGCT	0.26 kcal/mol
TTGCACACGTGAGGGA	0.25 kcal/mol
TTCTTCACGTGTTGGT	0.32 kcal/mol

Sequence	relative binding free energy
CGAGTCACGTGTTATT	0.13 kcal/mol
TGGGGCACGTGCTTTC	-0.09 kcal/mol
TTAAGCACGTGTTTAT	-0.17 kcal/mol
GGGGTCACGTGAAGGT	0.38 kcal/mol
CTTAGCACGTGTAAGG	-0.01 kcal/mol
TTTTCCACGTGGTATG	0.04 kcal/mol
GATAACACGTGTTTAG	0.03 kcal/mol
GGGTTCACGTGACTGA	0.31 kcal/mol
AGGAACACGTGAGAGG	0.23 kcal/mol
TAAGCCACGTGTGTGT	-0.04 kcal/mol
CGTAGCACGTGGCGTT	-0.22 kcal/mol
TGAGTCACGTGGCGAA	0.04 kcal/mol
ATTTTCACGTGTCTAT	0.36 kcal/mol
ATGGACACGTGGAAGT	0.05 kcal/mol
CAGAGCACGTGGTGGG	-0.24 kcal/mol
TAGGTCACGTGAGGAT	0.34 kcal/mol
CGGGTCACGTGGGAAA	-0.06 kcal/mol
TATCTCACGTGGGGTA	-0.04 kcal/mol
GGGAACACGTGGGCTT	-0.1 kcal/mol
TGGGACACGTGGAAAA	0.22 kcal/mol
TCTTGCACGTGAGGAT	0.34 kcal/mol
ATGGACACGTGTATTG	-0.02 kcal/mol
AAAGGCACGTGGGCGT	-0.38 kcal/mol
TATCTCACGTGAAGGT	0.53 kcal/mol
TTGAGCACGTGAGGTC	0.28 kcal/mol
GATGTCACGTGTTTTA	0.09 kcal/mol

Sequence	relative binding free energy
TAGATCACGTGGTTGT	0.04 kcal/mol
TAGGTCACGTGAGGGG	0.2 kcal/mol
CTGGTCACGTGCTGTG	-0.06 kcal/mol
TAGGCCACGTGACGGT	0.04 kcal/mol
GTTGGCACGTGACTTA	-0.02 kcal/mol
GGTGGCACGTGGGGAA	-0.11 kcal/mol
AGTACCACGTGGGAGG	-0.02 kcal/mol
TGGAACACGTGTTATG	-0.03 kcal/mol
AAAGTCACGTGTAAGT	0.35 kcal/mol
TTTCGCACGTGGGGGA	-0.27 kcal/mol
ACTTGCACGTGCGGGG	-0.08 kcal/mol
ATGTTCACGTGGGGCT	0.16 kcal/mol
CTTGTCACGTGTCGGT	0.08 kcal/mol
TTGGGCACGTGCACGG	-0.22 kcal/mol
GAGCGCACGTGTGGGC	0.02 kcal/mol
GGGCTCACGTGTGTTA	0.11 kcal/mol
TGAAGCACGTGGTGTG	-0.2 kcal/mol
GTGTGCACGTGTATGT	0.05 kcal/mol
ATAATCACGTGAGTAG	0.4 kcal/mol
TGATCCACGTGGTTGA	-0.06 kcal/mol
GGGGGCACGTGAAGCA	0.04 kcal/mol
ATGTACACGTGTTTGC	-0.01 kcal/mol
CGGGGCACGTGGCCGG	-0.31 kcal/mol
ATGGGCACGTGCGATT	0.01 kcal/mol
GGGGTCACGTGATTGT	0.36 kcal/mol
GGTCTCACGTGGTCAG	0.19 kcal/mol

Sequence	relative binding free energy
TGATCCACGTGTGTGT	0.06 kcal/mol
ATGAGCACGTGATATA	0.17 kcal/mol
GGGACCACGTGTCTGG	0.09 kcal/mol
TCGGGCACGTGTAATG	-0.05 kcal/mol
TATGTCACGTGTATGT	0.07 kcal/mol
GGCAACACGTGTGTGA	0.13 kcal/mol
GAATTCACGTGAAGGG	0.46 kcal/mol
GGAGGCACGTGTCGTT	-0.05 kcal/mol
TTACTCACGTGTATTT	0.25 kcal/mol
GGGTCCACGTGTTCGG	-0.04 kcal/mol
GGCAACACGTGCTGGG	-0.04 kcal/mol
GTTTTCACGTGCGAGT	0.35 kcal/mol
GTGGGCACGTGAATAG	0.21 kcal/mol
TGTTTCACGTGCGCTT	0.09 kcal/mol
AATGACACGTGGGTCG	0.01 kcal/mol
GTCAGCACGTGTTGAT	0.05 kcal/mol
GGTTTCACGTGTGACG	0.37 kcal/mol
TGGTTCACGTGTTGCA	0.16 kcal/mol
CATCGCACGTGAGGGT	0.17 kcal/mol
TGGTGCACGTGGGACT	-0.2 kcal/mol
AATGTCACGTGTGGGT	0.15 kcal/mol
ATTGGCACGTGAGTCT	0.02 kcal/mol
CGGTGCACGTGAGGTC	0.24 kcal/mol
CGGACCACGTGGGGGC	-0.13 kcal/mol
GTGCACACGTGTAAGT	0.04 kcal/mol
CATTGCACGTGGGGTT	-0.09 kcal/mol

Sequence	relative binding free energy
CGGTTCACGTGGTCTT	0.34 kcal/mol
AGTTTCACGTGGCGTA	0.17 kcal/mol
ATGTGCACGTGAGGTT	0.26 kcal/mol
TTTAGCACGTGTCCGG	-0.08 kcal/mol
GTGGGCACGTGATAAG	0.04 kcal/mol
TTGGACACGTGGGACG	-0.01 kcal/mol
ATAGGCACGTGTGAAG	-0.02 kcal/mol
ACGTTCACGTGAGTTT	0.32 kcal/mol
GAGGACACGTGGTGTA	0.03 kcal/mol
TCTGGCACGTGAATGT	0.13 kcal/mol
GTAGTCACGTGGATGA	0.18 kcal/mol
TTGAACACGTGTGGAC	0.23 kcal/mol
TTGGGCACGTGACTGT	-0.09 kcal/mol
AGTGGCACGTGACAGT	-0.17 kcal/mol
GTAGACACGTGGGGTT	0.04 kcal/mol
ATATTCACGTGTGTGA	0.17 kcal/mol
AGTCTCACGTGGCGGA	0.16 kcal/mol
GGTTGCACGTGGTGGT	0.06 kcal/mol
AACTTCACGTGTAGTT	0.29 kcal/mol
TGTTACACGTGCGAGG	-0.08 kcal/mol
AAGATCACGTGTTGAT	0.15 kcal/mol
TGTATCACGTGCGATG	0.24 kcal/mol
TGTTGCACGTGGGAAG	-0.18 kcal/mol
GCAGGCACGTGTGGGC	0.03 kcal/mol
TTGAACACGTGTTACT	0.15 kcal/mol
GGGATCACGTGTGAAG	0.25 kcal/mol

Sequence	relative binding free energy
TTGAACACGTGTGCGG	0.13 kcal/mol
GATAGCACGTGTATTT	0.05 kcal/mol
TTCGTCACGTGTGGGC	0.31 kcal/mol
AATTTCACGTGAGTTC	0.47 kcal/mol
GTATGCACGTGGACGG	-0.03 kcal/mol
TGTATCACGTGTTTCA	0.07 kcal/mol
TATTACACGTGTTATT	0.02 kcal/mol
CTGAGCACGTGTAGGG	-0.17 kcal/mol
CTGAGCACGTGGAGGG	-0.21 kcal/mol
AGGACCACGTGTTTGT	0 kcal/mol
ATCAGCACGTGTTGTG	-0.04 kcal/mol
GGTGTCACGTGAATGC	0.32 kcal/mol
GGATACACGTGTGTTG	0.13 kcal/mol
GATTTCACGTGCGTGT	0.21 kcal/mol
GGGTCCACGTGGATTT	0.17 kcal/mol
AGGTTCACGTGTAGTT	0.36 kcal/mol
CAACGCACGTGGGGGG	-0.33 kcal/mol
AGAAACACGTGGGTAG	-0.18 kcal/mol
GTTGACACGTGTACTT	0.03 kcal/mol
GTTGGCACGTGGGTTG	-0.19 kcal/mol
AGGTTCACGTGTCCGT	0.18 kcal/mol
AATGTCACGTGTGAAT	0.1 kcal/mol
